No constants are given. Whether binding was seen depends on the method and setting. In cells and extracts the contact can be indirect. Some results given as binding are weak or reduced against the parent protein; the word gives no strength. Each block holds one substance with its values, some of them ahead of it.
What was measured:
[1] = target: HA-KDM6A (UniProt O15550); assay: co-IP; HEK293T cells transfected with HA-KDM6A and Myc-SND1 constructs; immunoprecipitation and western blot with tag antibodies
[2] = target: HA-KDM6A 1-400aa (UniProt O15550); assay: as above
[3] = target: HA-KDM6A 400–1000aa (UniProt O15550); assay: as above
[4] = target: SND1 (co-IP with Ku70 and PCNA; endogenous or tagged not told) (UniProt Q7KZF4); assay: co-IP; co-IP of Ku70 and PCNA with KDM6A and SND1, with or without CPT (Supplementary Figure S2); cells and constructs not given
[5] = target: KDM6A (bait of the co-IP with mass spectrometry and of the co-IP with Ku70; endogenous or tagged not told) (UniProt O15550); assay: as above
[6] = target: KDM6A D1216N (UniProt O15550); assay: co-IP; Kyse150 cells co-transfected with the plasmid of SND1 and KDM6A mutants identified in ESCC patients; western blot with specific antibodies
[7] = target: KDM6A H101D & P110S (UniProt O15550); assay: as above
[8] = target: KDM6A (endogenous) (human (endogenous in HEK293T, HeLa, Kyse150, TE1)) (UniProt O15550); assay: co-IP; endogenous proteins, KDM6A antibody, ESCC cells Kyse150 and TE1
[9] = target: Flag-RPA1 (human (cDNA from HEK293T cells)) (UniProt P27694); assay: co-IP; immunoprecipitation of Flag-RPA1 from HEK293T cells, untreated or treated with HU for 1 h and released into fresh medium; western blot with specific antibodies

Sequences of proteins named here, by UniProt entry; tags and fusion partners are left off. A change or cut given only in a name is not applied to a line headed by its entry. Residues count along the entry.
UniProt O15550: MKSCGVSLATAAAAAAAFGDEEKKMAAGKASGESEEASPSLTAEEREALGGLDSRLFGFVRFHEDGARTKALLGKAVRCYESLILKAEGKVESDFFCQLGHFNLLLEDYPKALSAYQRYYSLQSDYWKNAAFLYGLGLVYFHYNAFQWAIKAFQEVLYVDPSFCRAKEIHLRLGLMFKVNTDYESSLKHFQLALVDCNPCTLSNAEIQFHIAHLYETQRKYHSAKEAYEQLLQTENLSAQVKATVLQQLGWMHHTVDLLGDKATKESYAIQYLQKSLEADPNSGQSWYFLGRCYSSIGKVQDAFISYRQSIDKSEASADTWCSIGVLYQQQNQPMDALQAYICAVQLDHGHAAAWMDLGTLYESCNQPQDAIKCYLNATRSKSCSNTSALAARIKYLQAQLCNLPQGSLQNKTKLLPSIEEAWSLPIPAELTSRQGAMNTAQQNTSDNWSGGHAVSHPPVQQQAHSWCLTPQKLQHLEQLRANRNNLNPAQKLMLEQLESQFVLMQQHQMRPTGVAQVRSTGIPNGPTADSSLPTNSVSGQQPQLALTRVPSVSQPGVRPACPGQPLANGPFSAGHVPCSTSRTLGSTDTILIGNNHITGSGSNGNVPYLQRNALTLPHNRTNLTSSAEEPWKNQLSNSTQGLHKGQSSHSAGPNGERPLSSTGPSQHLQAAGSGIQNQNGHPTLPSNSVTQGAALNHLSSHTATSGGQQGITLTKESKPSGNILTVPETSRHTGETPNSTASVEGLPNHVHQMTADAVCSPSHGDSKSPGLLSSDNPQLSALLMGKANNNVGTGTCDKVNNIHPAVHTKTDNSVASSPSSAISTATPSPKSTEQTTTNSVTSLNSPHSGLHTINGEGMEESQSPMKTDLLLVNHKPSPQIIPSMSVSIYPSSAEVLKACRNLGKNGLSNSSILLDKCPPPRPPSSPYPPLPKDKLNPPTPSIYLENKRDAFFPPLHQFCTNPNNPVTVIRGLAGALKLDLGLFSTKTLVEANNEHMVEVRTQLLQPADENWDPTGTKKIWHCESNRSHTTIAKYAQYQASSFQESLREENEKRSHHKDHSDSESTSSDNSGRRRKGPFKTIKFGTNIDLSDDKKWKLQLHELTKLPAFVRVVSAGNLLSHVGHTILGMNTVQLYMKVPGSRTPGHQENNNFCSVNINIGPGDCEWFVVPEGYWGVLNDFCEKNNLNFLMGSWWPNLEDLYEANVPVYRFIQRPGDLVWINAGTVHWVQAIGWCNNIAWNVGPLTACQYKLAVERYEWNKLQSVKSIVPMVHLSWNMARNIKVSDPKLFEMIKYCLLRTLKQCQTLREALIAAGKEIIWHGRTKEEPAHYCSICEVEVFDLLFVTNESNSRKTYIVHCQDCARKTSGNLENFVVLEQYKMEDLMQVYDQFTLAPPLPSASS
HA-KDM6A 1-400aa: residues 1-400 of O15550
HA-KDM6A 400–1000aa: residues 400-1000 of O15550
UniProt Q7KZF4: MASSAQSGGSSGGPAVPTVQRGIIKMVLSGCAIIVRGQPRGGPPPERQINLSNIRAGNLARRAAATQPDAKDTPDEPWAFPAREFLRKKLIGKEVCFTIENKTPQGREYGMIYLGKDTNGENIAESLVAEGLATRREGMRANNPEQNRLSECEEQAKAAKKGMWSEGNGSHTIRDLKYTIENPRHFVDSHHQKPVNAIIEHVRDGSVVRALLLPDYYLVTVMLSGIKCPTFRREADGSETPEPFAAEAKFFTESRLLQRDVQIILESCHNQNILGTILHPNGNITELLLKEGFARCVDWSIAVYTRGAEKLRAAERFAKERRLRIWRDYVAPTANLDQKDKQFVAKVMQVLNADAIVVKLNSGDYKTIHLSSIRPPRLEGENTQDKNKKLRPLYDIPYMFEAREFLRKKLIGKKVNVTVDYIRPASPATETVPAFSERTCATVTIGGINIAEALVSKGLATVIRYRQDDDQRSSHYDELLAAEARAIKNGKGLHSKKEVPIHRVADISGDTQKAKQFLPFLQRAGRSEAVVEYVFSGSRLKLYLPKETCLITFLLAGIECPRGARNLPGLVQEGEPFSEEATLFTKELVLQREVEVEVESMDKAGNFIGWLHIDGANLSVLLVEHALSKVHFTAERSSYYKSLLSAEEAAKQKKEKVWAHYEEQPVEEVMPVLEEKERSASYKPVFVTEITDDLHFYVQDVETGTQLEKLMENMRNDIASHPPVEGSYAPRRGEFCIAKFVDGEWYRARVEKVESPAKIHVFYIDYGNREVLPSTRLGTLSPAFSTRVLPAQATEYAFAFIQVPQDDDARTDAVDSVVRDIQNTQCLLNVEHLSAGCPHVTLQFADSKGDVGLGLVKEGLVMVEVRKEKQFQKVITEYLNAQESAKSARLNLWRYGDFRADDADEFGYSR
UniProt P27694: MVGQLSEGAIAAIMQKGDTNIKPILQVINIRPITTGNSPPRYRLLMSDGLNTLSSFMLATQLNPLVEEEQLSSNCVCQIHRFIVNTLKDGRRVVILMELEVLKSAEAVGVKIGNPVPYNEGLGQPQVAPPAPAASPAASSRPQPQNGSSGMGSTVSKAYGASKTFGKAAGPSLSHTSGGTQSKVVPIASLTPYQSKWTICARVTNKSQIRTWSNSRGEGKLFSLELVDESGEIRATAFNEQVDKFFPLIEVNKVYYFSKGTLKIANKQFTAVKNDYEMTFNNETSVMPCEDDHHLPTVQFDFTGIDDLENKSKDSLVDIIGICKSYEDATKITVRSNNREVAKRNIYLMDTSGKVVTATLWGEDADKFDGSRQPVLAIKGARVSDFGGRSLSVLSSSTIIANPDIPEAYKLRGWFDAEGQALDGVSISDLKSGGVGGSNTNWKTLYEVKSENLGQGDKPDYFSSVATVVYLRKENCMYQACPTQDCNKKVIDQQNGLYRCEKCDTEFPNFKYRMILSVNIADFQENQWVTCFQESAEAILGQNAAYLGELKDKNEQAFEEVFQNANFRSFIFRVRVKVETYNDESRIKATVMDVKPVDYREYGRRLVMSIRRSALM
UniProt P12004: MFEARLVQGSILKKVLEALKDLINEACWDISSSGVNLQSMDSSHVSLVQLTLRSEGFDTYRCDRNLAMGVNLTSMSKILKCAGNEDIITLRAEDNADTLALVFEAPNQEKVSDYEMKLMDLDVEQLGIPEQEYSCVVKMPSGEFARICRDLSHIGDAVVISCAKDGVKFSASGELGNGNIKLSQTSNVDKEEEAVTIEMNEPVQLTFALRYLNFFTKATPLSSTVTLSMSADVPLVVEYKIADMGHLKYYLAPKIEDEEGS
UniProt P12956: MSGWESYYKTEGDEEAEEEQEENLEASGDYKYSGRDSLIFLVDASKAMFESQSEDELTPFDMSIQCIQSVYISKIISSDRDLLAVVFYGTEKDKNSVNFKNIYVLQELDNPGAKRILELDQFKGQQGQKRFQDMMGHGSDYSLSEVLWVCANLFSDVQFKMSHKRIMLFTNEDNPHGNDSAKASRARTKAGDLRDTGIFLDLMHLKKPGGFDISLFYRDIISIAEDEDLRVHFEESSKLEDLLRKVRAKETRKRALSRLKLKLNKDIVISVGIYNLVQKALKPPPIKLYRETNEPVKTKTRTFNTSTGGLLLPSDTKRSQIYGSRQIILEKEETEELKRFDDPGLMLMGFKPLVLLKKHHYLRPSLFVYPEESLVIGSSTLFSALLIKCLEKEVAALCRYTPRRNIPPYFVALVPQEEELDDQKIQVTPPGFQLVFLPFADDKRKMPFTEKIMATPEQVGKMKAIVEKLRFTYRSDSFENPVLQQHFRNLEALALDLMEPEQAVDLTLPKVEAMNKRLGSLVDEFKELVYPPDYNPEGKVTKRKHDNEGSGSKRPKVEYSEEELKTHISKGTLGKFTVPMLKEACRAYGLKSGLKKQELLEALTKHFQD

Substance: 3Myc-SND1 (from UniProt Q7KZF4 1-910)
binding [1]: binds
binding [2]: binds
binding [3]: no binding

Substance: PCNA (from UniProt P12004 1-261)
binding [4]: no binding

Substance: staphylococcal nuclease domain-containing protein 1 (SND1), endogenous (from UniProt Q7KZF4 1-910)
binding [8]: binds
binding [9]: binds

Next, values leading:

binding [4]: no binding
binding [5]: binds
Substance: Ku70 (from UniProt P12956 1-609)

binding [6]: binds
binding [7]: binds
Substance: SND1 (plasmid co-transfected in Kyse150 cells) (from UniProt Q7KZF4 1-910)
